Laboratory results published in PMC10466050, “A comparative study of human and zebrafish glucocorticoid receptor activities of natural and pharmaceutical steroids” (Frontiers in Endocrinology, 2023).

Assays:
hGR = molecular target: T1, hGR (Homo sapiens, UniProt P04150); settings: HMLN-hGR; with 3 nM dexamethasone; % of maximal luciferase activity induced by 100 nM dexamethasone; at 10^-5M
T1 sequence (P04150 1-777): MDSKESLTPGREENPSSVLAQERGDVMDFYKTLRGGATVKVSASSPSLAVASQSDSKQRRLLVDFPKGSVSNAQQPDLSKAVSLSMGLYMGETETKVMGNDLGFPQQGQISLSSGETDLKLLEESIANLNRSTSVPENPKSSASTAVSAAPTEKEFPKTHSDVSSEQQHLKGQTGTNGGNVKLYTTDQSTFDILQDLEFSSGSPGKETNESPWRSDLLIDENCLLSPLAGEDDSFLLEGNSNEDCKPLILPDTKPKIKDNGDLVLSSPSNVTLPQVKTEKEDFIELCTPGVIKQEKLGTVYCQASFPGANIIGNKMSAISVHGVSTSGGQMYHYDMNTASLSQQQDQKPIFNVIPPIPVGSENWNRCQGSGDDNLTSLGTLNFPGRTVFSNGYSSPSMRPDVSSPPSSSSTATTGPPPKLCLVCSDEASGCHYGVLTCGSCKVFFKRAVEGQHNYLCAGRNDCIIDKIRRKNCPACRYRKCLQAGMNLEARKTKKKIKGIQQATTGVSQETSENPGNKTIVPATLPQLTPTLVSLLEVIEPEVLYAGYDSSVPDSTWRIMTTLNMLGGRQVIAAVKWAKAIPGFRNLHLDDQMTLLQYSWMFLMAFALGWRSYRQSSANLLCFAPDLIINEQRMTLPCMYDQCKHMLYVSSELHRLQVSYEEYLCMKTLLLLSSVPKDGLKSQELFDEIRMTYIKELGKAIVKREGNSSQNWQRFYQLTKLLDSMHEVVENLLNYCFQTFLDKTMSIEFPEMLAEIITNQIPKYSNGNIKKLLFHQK

zfGR = zfGR (Danio rerio, UniProt Q1XHK0); test: Antagonistic activity assessment in presence of 3 nM dexamethasone, UMLN-zfGR cells; format: cell-based, zebrafish; settings: UMLN-zfGR; with 3 nM dexamethasone; % of maximal luciferase activity induced by 100 nM dexamethasone; at 10^-5M

Row | SMILES | % min act (minimal activity) (hGR) | % min act (minimal activity) (zfGR)
1 | C[C@]12CCC(=O)C=C1[C@@H]1C[C@@H]1[C@H]1[C@@H]3[C@@H]4C[C@@H]4[C@@]4(CCC(=O)O4)[C@@]3(C)CC[C@@H]12 [drospirenone] | 2 ± 1% | 
2 | C[C@]12CCC(=O)C=C1CC[C@@H]1[C@@H]2[C@@H](O)C[C@]2(C=O)[C@@H](C(=O)CO)CC[C@@H]12 [aldosterone] |  | 49 ± 5%
